Measured values as given in paper PMC6919601, “Identification of Plasmodium dipeptidyl aminopeptidase allosteric inhibitors by high throughput screening” (PLoS ONE, 2019).
Several values for one entry are separate records, joined by “and”; a condition that tells them apart may be missing. Equal values may be shown once. About 230 (0.21%) of roughly 110,000 compounds showed an effect of 50% or more. This is one part of the list.

Target: DPAP1 (Plasmodium falciparum, UniProt Q8IIJ9)
Assay: primary screen, percent inhibition; read by cleavage of a fluorogenic dipeptide substrate; higher = more effect of the substance
Set-up: species or system P. falciparum D10 trophozoite lysates; single well
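Also: 30 min substrate incubation versus DMSO and 10 µM JCP410 controls.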

DPAP1, sequence (Q8IIJ9 whole entry, looked up): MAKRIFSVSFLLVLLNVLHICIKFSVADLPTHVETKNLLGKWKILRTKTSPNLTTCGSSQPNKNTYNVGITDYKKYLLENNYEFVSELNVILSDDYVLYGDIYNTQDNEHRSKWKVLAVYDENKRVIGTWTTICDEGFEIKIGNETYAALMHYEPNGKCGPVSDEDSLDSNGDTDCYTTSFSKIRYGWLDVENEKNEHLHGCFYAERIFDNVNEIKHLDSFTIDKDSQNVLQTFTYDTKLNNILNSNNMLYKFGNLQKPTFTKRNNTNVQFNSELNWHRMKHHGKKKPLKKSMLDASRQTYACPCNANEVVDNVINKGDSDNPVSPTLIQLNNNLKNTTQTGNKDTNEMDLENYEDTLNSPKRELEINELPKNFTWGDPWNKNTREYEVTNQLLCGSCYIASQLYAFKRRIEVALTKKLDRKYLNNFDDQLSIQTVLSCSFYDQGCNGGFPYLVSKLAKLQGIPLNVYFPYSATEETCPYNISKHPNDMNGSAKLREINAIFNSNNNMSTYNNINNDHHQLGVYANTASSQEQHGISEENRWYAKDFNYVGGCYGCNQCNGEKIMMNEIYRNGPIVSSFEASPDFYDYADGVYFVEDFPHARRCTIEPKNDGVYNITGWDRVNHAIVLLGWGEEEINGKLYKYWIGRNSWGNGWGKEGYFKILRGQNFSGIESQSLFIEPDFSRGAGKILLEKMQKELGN

Row | SMILES | % Inhibition @ 10 uM
1 | COc1cc(C(=O)NCc2cccs2)cc(OC)c1OC | -2.32%
2 | CCOC(=O)C1C(=O)CC(O)(c2cccc([N+](=O)[O-])c2)CC1C=C(Cl)Cl (stereo not shown) | 1.7%
3 | Cc1ccccc1C(=O)NCCSc1c[nH]c2ccccc12 | 1.94%
4 | CC(C)(C)C1CCc2c(sc(NC(=O)COc3ccccc3F)c2C#N)C1 (stereo not shown) | 0.776%
5 | COc1ccc(CN2CCN(Cc3ccc4c(c3)OCO4)CC2)c(OC)c1OC | -0.67%
6 | O=c1/c(=C/C2=Cc3ccccc3OC2)sc2nc(-c3ccccc3Br)nn12 | -1.18%
7 | c1ccc(-c2nnc(CNCCN3CCOCC3)o2)cc1 | 2.14%
8 | O=C1OC(c2ccc(Br)o2)=N/C1=C\c1ccc(Cl)c(Cl)c1 | 5.75%
9 | COc1ccc(S(=O)(=O)NCCc2nnc3ccc(SCc4ccccc4)nn23)cc1 | 1.13%
10 | CCOc1ccccc1NC(=O)c1cccnc1 | 5.06%
11 | c1ccc2c(N3CCOCC3)c3c(nc2c1)CCC3 | -6.62%
12 | CCOC(=O)N1CCC(NCCc2ccc(OC)cc2)CC1 | 3.48%
13 | Cc1ccc(Cn2c(=N)c(C#N)cc3c(=O)n4cccc(C)c4nc32)cc1 | 0.983%
14 | O=C(O)CCC(=O)Nc1cc(C(F)(F)F)ccc1Cl | -8.21%
15 | COc1ccccc1OCC(=O)Nc1ccc(S(=O)(=O)N2CCc3ccccc32)cc1 | -0.425%
16 | Cc1cc(O)n2nc(Cc3ccccc3)c(-c3ccccc3)c2n1 | -3.44%
17 | COc1ccc(-c2noc(CSc3nnc(-c4ccccc4)n3C)n2)cc1OC | -2.21%
18 | COc1ccccc1S(=O)(=O)Cc1ccc(C(=O)NCc2ccc3c(c2)OCO3)o1 | 0.458%
19 | Cc1ccc(OCC(=O)Nc2cc(Cl)c(O)c(Cl)c2)cc1 | -7.83%
20 | O=[N+]([O-])c1cnc(-c2ccc(Br)cc2)nc1 | -4.15%
21 | CCCC(C)C(=O)Nc1ccc(OC)cc1 (stereo not shown) | 2.44%
22 | Cc1cccc(C(=O)NC(=O)Nc2nc(C)cc(C(F)(F)F)n2)c1 | 0.9%

Row | SMILES | % Inhibition @ 10 uM
23 | C=CCNC(=S)Nc1sc2c(c1C(=O)OCC)CCC(C)C2 (stereo not shown) | 0.484%
24 | COc1cc(CNC(C)c2ccccc2)cc(Br)c1OCC(N)=O (stereo not shown) | -5.54%
25 | O=c1c2ccccc2ncn1Cc1ccco1 | -0.116%
26 | O=C(Cn1cnc(S(=O)(=O)N2CCCC2)c1)NC1CCCCC1 | 2.14%
27 | COC(=O)c1ccc(OCC2c3cc(OC)c(OC)cc3CCN2C(=O)COc2ccccc2)cc1 (stereo not shown) | -1.97%
28 | O=C(CN(c1ccc2c(c1)OCCO2)S(=O)(=O)c1ccccc1)NC1CC2CCC1C2 (stereo not shown) | -2.29%
29 | Cc1ccc(-c2nn(CCC(=O)NCCN3CCOCC3)c(=O)c3ccccc23)cc1 | -1.17%
30 | COc1ccc(S(=O)(=O)Nc2cc3c(cc2C(C)=O)OCO3)cc1 | 2.64%
31 | COc1cccc(C2=NOC(C(=O)N3CCOCC3)C2)c1OC (stereo not shown) | 1.24%
32 | Clc1ccc(N2CCN(Cc3cccc(Cl)c3Cl)CC2)cc1 | 3.16%
33 | Cc1c(Cc2ccccc2)sc(NC(=O)COc2ccccc2)c1C(N)=O | -1.28%
34 | CCOC(=O)C1CC(=O)Nc2cc(OC)c(OC)cc21 (stereo not shown) | 3.18%
35 | Cc1cccc(CNCc2c(C(=O)O)n(Cc3cccc(F)c3)c3cc(C)ccc23)c1 | -2.37%
36 | CCN(CC)C1CC(=O)N(c2ccc(C(C)C)cc2)C1=O (stereo not shown) | 2.98%
37 | Nc1c(C(=O)NCc2ccc3c(c2)OCO3)nnn1Cc1cccc(C(F)(F)F)c1 | -2.25%
38 | Cc1ccccc1CNC(=O)CN1C(=O)c2cccc3cccc1c23 | 2.78%
39 | Cc1ccccc1N1Cc2ccccc2C1 | -2.24%
40 | CS(=O)(=O)NCCNC(=O)c1c(O)oc2ccccc2c1=O | 3.34%
41 | CCCC(=O)Nc1c(C(=O)c2ccc(C)cc2)oc2ccccc12 | 3.93%
42 | O=C1NC2C(NC(=O)N2c2ccccc2)N1c1ccccc1 (stereo not shown) | -3.74%
43 | Cc1ccc(NC(=O)c2sc3nc(C)cc(C)c3c2N)c(Br)c1 | 3.81%
44 | Cc1ccccc1OCCCCc1c(C)n[nH]c1C | -4.3%

Row | SMILES | % Inhibition @ 10 uM
45 | CC1CCCC(N2CCN(C=O)CC2)C1 (stereo not shown) | 3.19%
46 | Cc1ccc(C(=O)N/C(=C/c2ccco2)C(=O)Nc2ccccc2C)cc1 | -2.8%
47 | CC[C@H](C)C(NC(=O)C1CCN(C(=O)OC(C)(C)C)CC1)C(=O)NC(CCc1ccccc1)C(=O)CO (stereo partly shown) | -3.97% and -5.64%
48 | OC1=C2C(=Nc3nc(-c4cccnc4)nn3C2c2ccc(Cl)cc2)CCC1 (stereo not shown) | 3.59%
49 | CC1=NN(c2ccccc2)C(=O)C(c2ccccc2)(c2ccccc2)O1 | -7.76%
50 | COc1ccccc1CNC(=O)CCN1N=C(c2ccccc2)CCC1=O | -2.94%
51 | COc1ccc(NC(=O)C(CC2CCCCC2)C(=O)NCC#N)cn1 (stereo not shown) | -0.214%
52 | COc1ccccc1C(=O)Nc1cc(-c2nc3ncccc3o2)ccc1C | -0.67%
53 | Cc1ccc(NC(=O)/C=C/c2ccc3c(c2)OCO3)c(Br)c1 | -3.94%
54 | CC1CCN(S(=O)(=O)c2ccc(NC(=O)C(C)Oc3ccc(F)cc3)cc2)CC1 (stereo not shown) | -5.31%
55 | CC(NC(=O)c1ccc(S(=O)(=O)N2CCOCC2)cc1)C12CC3CC(CC(C3)C1)C2 (stereo not shown) | -1.84%
56 | COc1ccccc1-c1c(C)nn2c(SCC(=O)N3CCN(c4ccccn4)CC3)cc(C)nc12 | -1.7%
57 | CC(C)c1ccc(NC(=O)COc2ccc(Br)cc2)cc1 | -5.11%
58 | COc1ccc(NC(=O)CN2C(=O)S/C(=C/c3cccn3-c3ccc(C(=O)O)cc3)C2=O)cc1 | 9.95%
59 | CC12CN3CC(C)(CN(C1)C3c1cc(Br)ccc1O)C2O (stereo not shown) | -7.62%
60 | O=c1c(CN2CCCCCC2)coc2ccccc12 | -0.261%
61 | O=C(NCC1CCCO1)c1cc2nc(-c3ccc(Cl)c(Cl)c3)cc(C(F)(F)F)n2n1 (stereo not shown) | 3.47%
62 | Cc1ccc(NC(=O)C2CC=CCC2C(=O)O)cc1Cl (stereo not shown) | 1.96%
63 | Cc1ccc(CCNC(=O)C2CCN(c3nnc(C)c4c(C)n(-c5ccc(C)cc5)nc34)CC2)cc1 | 3.56%
64 | C=CCOC(=O)C1=C(C)N=C2CCCC(O)=C2C1c1cccc(Br)c1 (stereo not shown) | -8.04%
